Laboratory results from paper PMC5892938.
The list shows a part of the results. At the low end of the ranking the order means little.

Biological target: GST-SBP-SLBP (stem-loop binding protein) (UniProt Q14493)
Experiment: targeted RNA Bind-n-Seq;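 further: DESeq read counts versus GST-SBP nonspecific binding control pulldown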
Conditions: RBNS binding buffer: 25 mM Tris pH 7.5, 150 mM KCl, 3 mM MgCl2, 0.1% Tween, 0.5 mg/mL BSA, 1 mM DTT; 27 nM protein, 750 pM RNA pool; temperature not stated; high values mean tight binding

Row | Sequence | binding signal (log2 fold change)
1 | GGUCACGUCUCAAUCAACUCUUCUUCCAGGGAAAUCCCUGGCAUGUUCAACAGCUCGCAGUCAAG | -0.0837
2 | GGUCACGUCUCAAUCAACUCUUUCCCCAGGGAAAACCCUGGUAUUCUCAACAGCUCGCAGUCAAG | 0.178
3 | GGUCACGUCUCAAUCAACUCUAUCCCAGGAGUUUUCUCCUGUAUUUUCAACAGCUCGCAGUCAAG | -0.119
4 | GGUCACGUCUCAAUCAACUCUAACGAGGGGGGGAAAACCCCUUUACCCUCUACAUCAACAGCUCGCAGUCAAG | -0.091
5 | GGUCACGUCUCAAUCAACUCCCAAGAGGGGGGGAAAACCCCUUUACCCUCCAAUUCAACAGCUCGCAGUCAAG | -0.052
6 | GGUCACGUCUCAAUCAACUCUUCUCCAGGAGUUUACUCCUGCAAUCUCAACAGCUCGCAGUCAAG | -0.0321
7 | GGUCACGUCUCAAUCAACUCUUCCUCAGGAGUUUCCUCCUGUUAAUUCAACAGCUCGCAGUCAAG | -0.0711
8 | GGUCACGUCUCAAUCAACUCUUCUCCAGGAGUUUCCUCCUGUAUUCUCAACAGCUCGCAGUCAAG | -0.0369
9 | GGUCACGUCUCAAUCAACUCUUUUCCCAGGGAAACCCCUGGUAAUCUCAACAGCUCGCAGUCAAG | 0.108
10 | GGUCACGUCUCAAUCAACUCUUCUUCAGGAGUUUACUCCUGCAAUCUCAACAGCUCGCAGUCAAG | -0.0236
11 | GGUCACGUCUCAAUCAACUCAUUCGAGGGGGGGAAAACCCCUUUACCCUCAACCUCAACAGCUCGCAGUCAAG | 0.208
12 | GGUCACGUCUCAAUCAACUCUAAAGAGGGGGGGAAAACCCCUUUACCCUCAAUGUCAACAGCUCGCAGUCAAG | 0.277
13 | GGUCACGUCUCAAUCAACUCAUCCCCAGGAGUUUCCUCCUGUAUUCUCAACAGCUCGCAGUCAAG | 0.141
14 | GGUCACGUCUCAAUCAACUCUUCAGAGGGGGGGAAAACCCCUUUACCCUCGUCCUCAACAGCUCGCAGUCAAG | -0.111
15 | GGUCACGUCUCAAUCAACUCUUUCUCAGGAGUUUACUCCUGCUAAUUCAACAGCUCGCAGUCAAG | -0.0714
16 | GGUCACGUCUCAAUCAACUCUUCUUCCAGGGAAAUCCCUGGUUUUUUCAACAGCUCGCAGUCAAG | -0.269
17 | GGUCACGUCUCAAUCAACUCUCUAGAGGGGGGGAAAACCCCUUUGCCCUCCAUGUCAACAGCUCGCAGUCAAG | -0.575
18 | GGUCACGUCUCAAUCAACUCUAUCUCAGGAGUUUACUCCUGUUAUCUCAACAGCUCGCAGUCAAG | 0.162
19 | GGUCACGUCUCAAUCAACUCUUAAGAGGGGGGGAAAACCCCUUUACCCUCGCCUUCAACAGCUCGCAGUCAAG | 0.0688
20 | GGUCACGUCUCAAUCAACUCUUUUUCCAGGGAAAACCCUGGCUAUUUCAACAGCUCGCAGUCAAG | 0.0486
